In the antibiotic and cytotoxicity screens of Wong et al. (2023) one finds cytotoxicity call data, which are given here for 40 compounds.

SMILES strings stand for the structures. The list shows a part of the results.

This assay has as its system HepG2. The assay can be described thus: cytotoxicity call (relative viability < 0.9). The conditions noted are these: 10 µM.
With `C[C@H]1CN([C@@H](C)CO)C(=O)Cc2cc(NC(=O)Nc3cccc4ccccc34)ccc2O[C@H]1CN(C)C(=O)Nc1ccccc1`, the cytotoxicity call was “inactive”.

As to `O=C(C[C@@H]1C[C@@H]2c3cc(NS(=O)(=O)c4ccc(F)cc4)ccc3O[C@@H]2[C@H](CO)O1)N1CCOCC1`, the cytotoxicity call was “inactive”.

For the compound `Cc1noc(C)c1NC(=O)Nc1cccc2c1O[C@@H](CN(C)Cc1ccc(C(F)(F)F)cc1)[C@@H](C)CN([C@H](C)CO)C2=O`, the cytotoxicity call is “inactive”.

As to `Cl.Clc1cccc(Cl)c1N=C1NCCN1`, the cytotoxicity call was “inactive”.

On to `COc1ccc(S(=O)(=O)N[C@H]2C=C[C@H](CC(=O)NCCc3ccncc3)O[C@@H]2CO)cc1`, for which the cytotoxicity call is “inactive”.

On to `Cc1ccc(NC(=O)CC(C)C)cc1`, for which the cytotoxicity call is “inactive”.

Regarding `C[C@@H]1CN([C@@H](C)CO)C(=O)c2cccc(NC(=O)NC3CCCCC3)c2O[C@@H]1CN(C)Cc1ccc(C(=O)Nc2ccccc2N)cc1`, the cytotoxicity call was “inactive”.

As to `COc1ccc(C#Cc2ccc3c(c2)[C@H]2[C@H](CCN2C(=O)Nc2ccc(C(F)(F)F)cc2)[C@H](CO)N3C)cc1`, the cytotoxicity call is “inactive”.

Consider `CN1CCN(C(=O)C[C@@H]2CC[C@@H]3[C@H](COc4ccc(NC(=O)c5cccs5)cc4C(=O)N3C)O2)CC1`, for which the cytotoxicity call is “inactive”.

As to `Nc1nc(=O)c2ncn([C@H]3C[C@H](O)[C@@H](CO)O3)c2[nH]1`, the cytotoxicity call is “inactive”.

For the compound `COCC(=O)Nc1ccc2c(c1)C(=O)N(C)[C@H]1CC[C@H](CC(=O)NCc3ccccc3Cl)O[C@@H]1CO2`, the cytotoxicity call is “inactive”.

For `COc1ccc2c3c([nH]c2c1)[C@@H](CO)N(C[C@]13CN(C1)S(=O)(=O)c1cccs1)C(=O)c1ccccc1`, the cytotoxicity call is “inactive”.

Regarding `C[C@@H]1CCCCO[C@H](CN(C)C(=O)Nc2cccc3ccccc23)[C@@H](C)CN([C@H](C)CO)C(=O)c2cc(NC(=O)NC3CCCCC3)ccc2O1`, the cytotoxicity call is “inactive”.

For the compound `COc1cccc2cc(C(C)=O)oc12`, the cytotoxicity call is “inactive”.

As for `C[C@H]1CN([C@@H](C)CO)C(=O)c2cc(NC(=O)CCCN(C)C)ccc2O[C@H]1CN(C)S(=O)(=O)c1cn(C)cn1`, the cytotoxicity call was “inactive”.

Take `O=C(NCCCl)N(CCCl)[N+][O-]`: the cytotoxicity call is “inactive”.

`COc1ccc(NC(=O)Nc2cccc3c2O[C@@H](CN(C)C(=O)Nc2ccc(C(F)(F)F)cc2)[C@H](C)CN([C@@H](C)CO)C3=O)cc1`: the cytotoxicity call was “inactive”.

For `O=C(C[C@@H]1CC[C@@H]2[C@H](COC[C@H](O)CN2C(=O)c2ccncc2)O1)NC1CCC1`, the cytotoxicity call is “inactive”.

In the case of `C[C@H](CO)N1C[C@H](C)[C@H](CN(C)Cc2ccc(-c3ccccc3)cc2)Oc2ccc(NC(=O)C3CCCCC3)cc2CC1=O`, the cytotoxicity call was “inactive”.

Take `Cc1noc(C)c1NC(=O)Nc1ccc2c(c1)C(=O)N([C@H](C)CO)C[C@H](C)[C@H](CN(C)C(=O)Nc1ccc(F)cc1)OCCCC[C@H](C)O2`: the cytotoxicity call was “inactive”.

Consider `COCC(=O)N1CC(=O)N2[C@H](CO)[C@H](c3ccc(C#Cc4cccnc4)cc3)[C@H]2C1`, for which the cytotoxicity call was “inactive”.

On to `COc1ccc(NC(=O)Nc2ccc3c(c2)C(=O)N([C@@H](C)CO)C[C@H](C)[C@H](CN(C)Cc2ccc(C(=O)Nc4ccccc4N)cc2)O3)cc1`, for which the cytotoxicity call was “inactive”.

On to `CCS(=O)(=O)Nc1ccc2c(c1)C(=O)N(C)C[C@@H](OC)[C@@H](C)CN(CCC(F)(F)F)[C@H](C)CO2`, for which the cytotoxicity call was “inactive”.

For the compound `C[C@@H]1CCCCO[C@@H](CN(C)C(=O)CCC(F)(F)F)[C@@H](C)CN([C@H](C)CO)C(=O)c2cc(NC(=O)CCCCCC(=O)Nc3ccccc3N)ccc2O1`, the cytotoxicity call was “inactive”.

On to `C[C@H]1CCCCN1C(=O)CCS(=O)(=O)c1ccc2c(c1)n(C)c(=O)c(=O)n2C`, for which the cytotoxicity call was “inactive”.

Take `Cc1ccc(S(=O)(=O)N(C)C[C@@H]2Oc3ncc(C#Cc4ccccc4)cc3C(=O)N([C@H](C)CO)C[C@@H]2C)cc1`: the cytotoxicity call was “inactive”.

As for `O=C(O)CCN1C(=O)c2ccncc2C1=O`, the cytotoxicity call is “inactive”.

Consider `CO[C@H]1CN(C)C(=O)c2cc(NC(=O)Nc3ccccc3F)ccc2OC[C@H](C)N(CCC(F)(F)F)C[C@@H]1C`, for which the cytotoxicity call was “inactive”.

On to `Cc1ccc(-c2csc(-c3ccc(C(F)(F)F)cc3)n2)cc1`, for which the cytotoxicity call was “inactive”.

Take `COc1ccc(CN(C)C[C@H]2OCCCC[C@@H](C)Oc3ccc(NC(=O)Nc4ccc5c(c4)OCO5)cc3C(=O)N([C@@H](C)CO)C[C@H]2C)cc1`: the cytotoxicity call is “inactive”.

In the case of `C[C@@H]1CN([C@@H](C)CO)C(=O)Cc2cc(NC(=O)Nc3ccc(C(F)(F)F)cc3)ccc2O[C@@H]1CN(C)S(C)(=O)=O`, the cytotoxicity call is “inactive”.

Turning to `COc1ccc(S(=O)(=O)N(C)C[C@H]2Oc3c(NC(=O)c4ccncc4)cccc3C(=O)N([C@H](C)CO)C[C@H]2C)cc1`, the cytotoxicity call was “inactive”.

As for `O[C@H]1CCCC[C@@H]1O`, the cytotoxicity call is “inactive”.

For the compound `CN(C)CCCNC(=O)C[C@H]1CC[C@@H]2[C@H](COC[C@@H](O)CN2S(=O)(=O)c2ccc(Cl)cc2)O1`, the cytotoxicity call was “inactive”.

As for `O=C(O)CN(CCN(CC(=O)O)CC(=O)O)CC(=O)O`, the cytotoxicity call is “inactive”.

For `COc1ccc(CN(C)C[C@@H]2OCCCC[C@H](C)Oc3ccc(NC(=O)Nc4ccc(C(F)(F)F)cc4)cc3C(=O)N([C@@H](C)CO)C[C@@H]2C)cc1`, the cytotoxicity call was “active”.

Consider `Cc1ccc(S(=O)(=O)N(C)C[C@H]2Oc3ccc(NC(=O)CCCN(C)C)cc3C(=O)N([C@@H](C)CO)C[C@H]2C)cc1`, for which the cytotoxicity call was “inactive”.

Regarding `Cc1ccc(S(=O)(=O)Nc2ccc3c(c2)C(=O)N([C@@H](C)CO)C[C@@H](C)[C@@H](CN(C)S(C)(=O)=O)O3)cc1`, the cytotoxicity call is “inactive”.

`O=C1C[C@]2(c3ccc([N+](=O)[O-])cc3)C(=O)N(Cc3ccccc3)c3cc(CO)ccc3[C@H]2N1CC12CC3CC(CC(C3)C1)C2`: the cytotoxicity call was “inactive”.

Take `Cc1noc(C)c1S(=O)(=O)Nc1ccc2c(c1)C(=O)N([C@@H](C)CO)C[C@@H](C)[C@H](CN(C)S(=O)(=O)c1ccc(Cl)cc1)O2`: the cytotoxicity call is “inactive”.
